No constants are given. Whether binding was seen depends on the method and setting. Binding seen in cells or lysates may run through a third protein. Some results given as binding are weak or reduced against the parent protein; the word gives no strength. Sequences can lack the tags named with a protein.
T1: Flag-tagged mouse full length FRMD7 (mouse) (UniProt A2AD83)
T1 sequence: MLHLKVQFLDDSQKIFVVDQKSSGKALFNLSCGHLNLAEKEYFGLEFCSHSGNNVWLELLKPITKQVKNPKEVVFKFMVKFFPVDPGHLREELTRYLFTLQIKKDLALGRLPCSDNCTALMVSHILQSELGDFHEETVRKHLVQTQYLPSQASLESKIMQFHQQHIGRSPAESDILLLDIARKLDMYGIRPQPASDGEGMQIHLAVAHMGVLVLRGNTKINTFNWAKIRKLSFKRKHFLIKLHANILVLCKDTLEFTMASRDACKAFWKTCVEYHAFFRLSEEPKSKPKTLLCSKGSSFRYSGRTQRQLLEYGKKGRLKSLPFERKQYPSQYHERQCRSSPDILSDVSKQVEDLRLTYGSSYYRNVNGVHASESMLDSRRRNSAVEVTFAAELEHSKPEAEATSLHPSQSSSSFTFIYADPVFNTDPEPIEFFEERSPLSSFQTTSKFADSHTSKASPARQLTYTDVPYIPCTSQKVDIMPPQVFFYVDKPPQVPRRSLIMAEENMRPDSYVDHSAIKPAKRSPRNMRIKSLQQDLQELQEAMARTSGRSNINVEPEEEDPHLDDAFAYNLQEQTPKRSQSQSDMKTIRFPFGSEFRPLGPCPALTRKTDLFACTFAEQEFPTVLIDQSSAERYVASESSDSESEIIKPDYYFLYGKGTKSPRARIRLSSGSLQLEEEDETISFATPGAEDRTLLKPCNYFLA

T2: Myc-tagged RhoGDIα expressed in HEK293T cells (not stated (human or mouse cDNA cloned)) (UniProt P52565)
T2 sequence: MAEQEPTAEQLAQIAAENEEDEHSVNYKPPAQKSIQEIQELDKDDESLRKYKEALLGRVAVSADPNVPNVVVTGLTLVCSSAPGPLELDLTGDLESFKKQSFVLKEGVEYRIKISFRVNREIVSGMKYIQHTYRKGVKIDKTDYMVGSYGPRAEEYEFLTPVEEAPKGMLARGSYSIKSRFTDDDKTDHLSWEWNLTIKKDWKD

T3: GST-RhoGDIα (wild-type mouse RhoGDIα, GST fusion) (mouse) (UniProt Q99PT1)
T3 sequence: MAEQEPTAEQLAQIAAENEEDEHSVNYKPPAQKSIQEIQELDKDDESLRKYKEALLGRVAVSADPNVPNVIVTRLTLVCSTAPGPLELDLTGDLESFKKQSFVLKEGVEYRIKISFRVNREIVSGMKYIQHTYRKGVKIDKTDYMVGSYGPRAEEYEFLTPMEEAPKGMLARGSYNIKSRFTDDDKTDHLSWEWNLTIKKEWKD

T4: Myc-tagged mouse RhoGDIα (mouse) (UniProt Q99PT1)
T4 sequence: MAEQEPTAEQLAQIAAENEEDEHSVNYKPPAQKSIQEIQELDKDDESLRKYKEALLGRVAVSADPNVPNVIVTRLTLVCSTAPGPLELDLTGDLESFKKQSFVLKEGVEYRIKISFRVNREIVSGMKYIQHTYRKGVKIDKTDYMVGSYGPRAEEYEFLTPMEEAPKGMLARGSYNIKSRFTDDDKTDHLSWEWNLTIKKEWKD


What was measured:
[1] = biological target: T1, Flag-tagged mouse full length FRMD7 (mouse); assay: co-IP; reciprocal co-IP from Neuro-2a cells co-transfected with Flag-FRMD7 and Myc-RhoGDIα, 48 h; lysis buffer 50mM Tris pH 7.4, 150mM NaCl, 1% NP-40, 0.25% sodium deoxycholate; anti-Flag or anti-Myc antibody overnight at 4° C, protein A/G Sepharose; normal mouse IgG as negative control
[2] = biological target: T2, Myc-tagged RhoGDIα expressed in HEK293T cells (not stated (human or mouse cDNA cloned)); assay: co-IP; HEK293T cells expressing Myc-RhoGDIα alone or with Flag-tagged wild-type or mutant human FRMD7, 48 h; Myc-RhoGDIα precipitated with anti-Myc antibody bound to protein A/G-Sepharose; blots for Rac1, Cdc42, RhoA and Flag
[3] = biological target: T3, GST-RhoGDIα (wild-type mouse RhoGDIα, GST fusion) (mouse); assay: pull-down; in vitro GST pull-down with highly purified GST-RhoGDIα; FRMD7 full length and truncates from eukaryotic expression; only the target purified
[4] = biological target: T4, Myc-tagged mouse RhoGDIα (mouse); assay: co-IP; Neuro-2a cells expressing Myc-RhoGDIα with or without Flag-full-length FRMD7; Myc-RhoGDIα precipitated with 3 µg anti-Myc antibody bound to protein A/G-Sepharose; blots for Rac1, Cdc42, RhoA and Flag
[5] = biological target: T4, Myc-tagged mouse RhoGDIα (mouse); assay: co-IP; reciprocal co-IP from Neuro-2a cells co-transfected with Flag-FRMD7 and Myc-RhoGDIα, 48 h; lysis buffer 50mM Tris pH 7.4, 150mM NaCl, 1% NP-40, 0.25% sodium deoxycholate; anti-Flag or anti-Myc antibody overnight at 4° C, protein A/G Sepharose; normal mouse IgG as negative control

Binder	binding [2]	binding [3]	also measured
Myc-tagged mouse RhoGDIα (protein, UniProt Q99PT1 1-204) MAEQEPTAEQLAQIAAENEEDEHSVNYKPPAQKSIQEIQELDKDDESLRKYKEALLGRVAVSADPNVPNVIVTRLTLVCSTAPGPLELDLTGDLESFKKQSFVLKEGVEYRIKISFRVNREIVSGMKYIQHTYRKGVKIDKTDYMVGSYGPRAEEYEFLTPMEEAPKGMLARGSYNIKSRFTDDDKTDHLSWEWNLTIKKEWKD	–	–	binding [1]: binds
Flag-tagged human FRMD7 mutant c.781C>G (p.R261G) (protein, UniProt Q6ZUT3-1 1-714) MLHLKVQFLDDSQKIFVVDQKSSGKALFNLSCSHLNLAEKEYFGLEFCSHSGNNVWLELLKPITKQVKNPKEIVFKFMVKFFPVDPGHLREELTRYLFTLQIKKDLALGRLPCSDNCTALMVSHILQSELGDFHEETDRKHLAQTRYLPNQDCLEGKIMHFHQKHIGRSPAESDILLLDIARKLDMYGIRPHPASDGEGMQIHLAVAHMGVLVLRGNTKINTFNWAKIRKLSFKRKHFLIKLHANILVLCKDTLEFTMASGDACKAFWKTCVEYHAFFRLSEEPKSKPKTLLCSKGSSFRYSGRTQRQLLEYGRKGRLKSLPFERKHYPSQYHERQCRSSPDLLSDVSKQVEDLRLAYGGGYYQNVNGVHASEPVLESRRRNSALEVTFATELEHSKPEADPTLLHQSQSSSSFPFIYMDPVFNTEPNPNPDPRDIFSERSSLSSFQTSCKFSGNHMSIYSGLTSKVRPAKQLTYTDVPYIPCTGQQVGIMPPQVFFYVDKPPQVPRWSPIRAEERTSPHSYVEPTAMKPAERSPRNIRMKSFQQDLQVLQEAIARTSGRSNINVGLEEEDPNLEDAFVCNIQEQTPKRSQSQSDMKTIRFPFGSEFRPLGPCPALSHKADLFTDMFAEQELPAVLMDQSTAERYVASESSDSESEILKPDYYALYGKEIRSPMARIRLSSGSLQLDEEDEDAYFNTPTAEDRTSLKPCNYFLA	binds	–	–
Flag-tagged human FRMD7 mutant c.886G>C (p.G296R) (protein, UniProt Q6ZUT3-1 1-714) MLHLKVQFLDDSQKIFVVDQKSSGKALFNLSCSHLNLAEKEYFGLEFCSHSGNNVWLELLKPITKQVKNPKEIVFKFMVKFFPVDPGHLREELTRYLFTLQIKKDLALGRLPCSDNCTALMVSHILQSELGDFHEETDRKHLAQTRYLPNQDCLEGKIMHFHQKHIGRSPAESDILLLDIARKLDMYGIRPHPASDGEGMQIHLAVAHMGVLVLRGNTKINTFNWAKIRKLSFKRKHFLIKLHANILVLCKDTLEFTMASRDACKAFWKTCVEYHAFFRLSEEPKSKPKTLLCSKRSSFRYSGRTQRQLLEYGRKGRLKSLPFERKHYPSQYHERQCRSSPDLLSDVSKQVEDLRLAYGGGYYQNVNGVHASEPVLESRRRNSALEVTFATELEHSKPEADPTLLHQSQSSSSFPFIYMDPVFNTEPNPNPDPRDIFSERSSLSSFQTSCKFSGNHMSIYSGLTSKVRPAKQLTYTDVPYIPCTGQQVGIMPPQVFFYVDKPPQVPRWSPIRAEERTSPHSYVEPTAMKPAERSPRNIRMKSFQQDLQVLQEAIARTSGRSNINVGLEEEDPNLEDAFVCNIQEQTPKRSQSQSDMKTIRFPFGSEFRPLGPCPALSHKADLFTDMFAEQELPAVLMDQSTAERYVASESSDSESEILKPDYYALYGKEIRSPMARIRLSSGSLQLDEEDEDAYFNTPTAEDRTSLKPCNYFLA	binds	–	–
Flag-tagged human FRMD7 truncated mutant c.1003C>T (p.R335X) (domain or fragment, UniProt Q6ZUT3-1 1-334) MLHLKVQFLDDSQKIFVVDQKSSGKALFNLSCSHLNLAEKEYFGLEFCSHSGNNVWLELLKPITKQVKNPKEIVFKFMVKFFPVDPGHLREELTRYLFTLQIKKDLALGRLPCSDNCTALMVSHILQSELGDFHEETDRKHLAQTRYLPNQDCLEGKIMHFHQKHIGRSPAESDILLLDIARKLDMYGIRPHPASDGEGMQIHLAVAHMGVLVLRGNTKINTFNWAKIRKLSFKRKHFLIKLHANILVLCKDTLEFTMASRDACKAFWKTCVEYHAFFRLSEEPKSKPKTLLCSKGSSFRYSGRTQRQLLEYGRKGRLKSLPFERKHYPSQYHE	binds weakly	–	–
Flag-tagged mouse full length FRMD7 (protein, UniProt A2AD83 1-703) MLHLKVQFLDDSQKIFVVDQKSSGKALFNLSCGHLNLAEKEYFGLEFCSHSGNNVWLELLKPITKQVKNPKEVVFKFMVKFFPVDPGHLREELTRYLFTLQIKKDLALGRLPCSDNCTALMVSHILQSELGDFHEETVRKHLVQTQYLPSQASLESKIMQFHQQHIGRSPAESDILLLDIARKLDMYGIRPQPASDGEGMQIHLAVAHMGVLVLRGNTKINTFNWAKIRKLSFKRKHFLIKLHANILVLCKDTLEFTMASRDACKAFWKTCVEYHAFFRLSEEPKSKPKTLLCSKGSSFRYSGRTQRQLLEYGKKGRLKSLPFERKQYPSQYHERQCRSSPDILSDVSKQVEDLRLTYGSSYYRNVNGVHASESMLDSRRRNSAVEVTFAAELEHSKPEAEATSLHPSQSSSSFTFIYADPVFNTDPEPIEFFEERSPLSSFQTTSKFADSHTSKASPARQLTYTDVPYIPCTSQKVDIMPPQVFFYVDKPPQVPRRSLIMAEENMRPDSYVDHSAIKPAKRSPRNMRIKSLQQDLQELQEAMARTSGRSNINVEPEEEDPHLDDAFAYNLQEQTPKRSQSQSDMKTIRFPFGSEFRPLGPCPALTRKTDLFACTFAEQEFPTVLIDQSSAERYVASESSDSESEIIKPDYYFLYGKGTKSPRARIRLSSGSLQLEEEDETISFATPGAEDRTLLKPCNYFLA	–	binds	binding [4]: binds; binding [5]: binds
Flag-tagged wild-type human FRMD7 (protein, UniProt Q6ZUT3-1 1-714) MLHLKVQFLDDSQKIFVVDQKSSGKALFNLSCSHLNLAEKEYFGLEFCSHSGNNVWLELLKPITKQVKNPKEIVFKFMVKFFPVDPGHLREELTRYLFTLQIKKDLALGRLPCSDNCTALMVSHILQSELGDFHEETDRKHLAQTRYLPNQDCLEGKIMHFHQKHIGRSPAESDILLLDIARKLDMYGIRPHPASDGEGMQIHLAVAHMGVLVLRGNTKINTFNWAKIRKLSFKRKHFLIKLHANILVLCKDTLEFTMASRDACKAFWKTCVEYHAFFRLSEEPKSKPKTLLCSKGSSFRYSGRTQRQLLEYGRKGRLKSLPFERKHYPSQYHERQCRSSPDLLSDVSKQVEDLRLAYGGGYYQNVNGVHASEPVLESRRRNSALEVTFATELEHSKPEADPTLLHQSQSSSSFPFIYMDPVFNTEPNPNPDPRDIFSERSSLSSFQTSCKFSGNHMSIYSGLTSKVRPAKQLTYTDVPYIPCTGQQVGIMPPQVFFYVDKPPQVPRWSPIRAEERTSPHSYVEPTAMKPAERSPRNIRMKSFQQDLQVLQEAIARTSGRSNINVGLEEEDPNLEDAFVCNIQEQTPKRSQSQSDMKTIRFPFGSEFRPLGPCPALSHKADLFTDMFAEQELPAVLMDQSTAERYVASESSDSESEILKPDYYALYGKEIRSPMARIRLSSGSLQLDEEDEDAYFNTPTAEDRTSLKPCNYFLA	binds	–	–
Nr-ferm FRMD7 (aa 1-279; the N-terminal FERM domain of mouse FRMD7) (domain or fragment, UniProt A2AD83 1-279) MLHLKVQFLDDSQKIFVVDQKSSGKALFNLSCGHLNLAEKEYFGLEFCSHSGNNVWLELLKPITKQVKNPKEVVFKFMVKFFPVDPGHLREELTRYLFTLQIKKDLALGRLPCSDNCTALMVSHILQSELGDFHEETVRKHLVQTQYLPSQASLESKIMQFHQQHIGRSPAESDILLLDIARKLDMYGIRPQPASDGEGMQIHLAVAHMGVLVLRGNTKINTFNWAKIRKLSFKRKHFLIKLHANILVLCKDTLEFTMASRDACKAFWKTCVEYHAFFR	–	no binding	–
Cr-fragment FRMD7 (aa 280-703; FRMD7 lacking the FERM domain) (domain or fragment, UniProt A2AD83 280-703) LSEEPKSKPKTLLCSKGSSFRYSGRTQRQLLEYGKKGRLKSLPFERKQYPSQYHERQCRSSPDILSDVSKQVEDLRLTYGSSYYRNVNGVHASESMLDSRRRNSAVEVTFAAELEHSKPEAEATSLHPSQSSSSFTFIYADPVFNTDPEPIEFFEERSPLSSFQTTSKFADSHTSKASPARQLTYTDVPYIPCTSQKVDIMPPQVFFYVDKPPQVPRRSLIMAEENMRPDSYVDHSAIKPAKRSPRNMRIKSLQQDLQELQEAMARTSGRSNINVEPEEEDPHLDDAFAYNLQEQTPKRSQSQSDMKTIRFPFGSEFRPLGPCPALTRKTDLFACTFAEQEFPTVLIDQSSAERYVASESSDSESEIIKPDYYFLYGKGTKSPRARIRLSSGSLQLEEEDETISFATPGAEDRTLLKPCNYFLA	–	no binding	–

Source: publication PMC3742540
